Read counts are not given, so values of variants with three or more changes are uncertain.
B1: LINE1-mini (parent)
chain: GGCAGAGCUCAACACAGCGUGGCAAAGUGGCUGUGGCUAGACUGCC

Variants of: B1
Assay: self-cleavage, relative activity (ratio to wild type); higher = more cleavage; in vitro, sequencing; the parent is a self-cleaving ribozyme

Row | Variant | self-cleavage
1 | C3G G21U G27U G40C | 0.04
2 | C3G U20C G35C | 0.1
3 | C3U G5A A12C G17A | 0.06
4 | C3U G27C G33A | 0.22
5 | C3G G22C C31U A39C | 0.02
6 | C3U U28A C31U A39G | 0.06
7 | C3U G7C G27C U38G A41U G44U | 0
8 | C3U A4G A16U U34C A39G | 0.19
9 | C3U C15U C42A | 0.56
10 | C3U U9A C10G G27U G36C | 0.01
11 | C3U A4C A25C G40C G44C | 0.03
12 | C3U A14G C15A U20C | 0.09
13 | C3U U9G A14C U20C G30A G33A G40A | 0.03
14 | C3G G21U A41C | 0.19
15 | C3G G29U G44A | 0.44
16 | C3U A4C A6U A12U U34C | 0.04
17 | C3U A4G A11C G21C G35U C46U | 0.02
18 | C3U G7A A11C | 0.01
19 | C3U C8U A24G G36U A41C U43G | 0.84
20 | C3U A6C A12U C42G | 0.03
21 | C3U C18U U20C | 0.39
22 | C3U C8G A25U A39C C46A | 0.04
23 | C3U A12G C42G | 0.05
24 | C3U G21U G27A C45U | 0.1

Row | Variant | self-cleavage
25 | C3U A6G C10U | 0.03
26 | C3U A12G G19U G33U | 0.05
27 | C3U C23G G36C | 0.14
28 | C3U C15U G21C G27C | 0.36
29 | C3U C23G C37G U38C A39G | 0.05
30 | C3U G19A C37U | 0.06
31 | C3U A12G C18G | 0.01
32 | C3U G7U C18U U43G | 1.17
33 | C3U A4C G5A U9C A14G | 0.03
34 | C3U A16U C23U G33U | 0.06
35 | C3U C13A G35U G40U A41C | 0.05
36 | C3U A4U A6C U9C | 0.07
37 | C3G U9C U34G | 0.01
38 | C3U C8G C23U U34C G36A | 0.03
39 | C3U C8G U38A | 0.25
40 | C3U G5A U9A | 0.11
41 | C3U G17A U34C | 0.06
42 | C3U C8A C42G | 0.29
43 | C3U C31A A39C C45A | 0
44 | C3U C13G G19U C37U A39C | 0.03
45 | C3U A11G U43C C45U | 0.03
46 | C3U G22A A26U U38G | 0.01
47 | C3U U9G U20A G22A C37G G40A | 0.08
48 | C3G G22U A25U C31U | 0.03

Row | Variant | self-cleavage
49 | C3U U9A A39U A41G | 0.1
50 | C3U C13A G27U G30A | 0.04
51 | C3U A14U G19U U20G C23U A25U | 0.47
52 | C3U A11U C13A A14G | 0.04
53 | C3U G7U U32A U34C | 0.22
54 | C3U U20C C46U | 0.12
55 | C3U G17C C45A | 0.03
56 | C3G U9G C18U C31G | 0.06
57 | C3U C13A G22A U34A C45G | 0.42
58 | C3U G36A G44C | 0.15
59 | C3G U20A U38A G44C | 0.16
60 | C3U C8U G40C | 0.07
61 | C3U C8U G40U | 0.25
62 | C3G U38A A41U | 0.13
63 | C3U C10A A25C | 0.08
64 | C3U A4C A12U C42A | 0.13
65 | C3U A4U C10U | 0.24
66 | C3U C18G U20A G36U U43C | 0.45
67 | C3U U20G U28G G40C | 0
68 | C3G G33U C42U | 0.06
69 | C3U C13G G29C G33A A39U | 0.02
70 | C3U G7U G36C G40U U43A G44C | 0.06
71 | C3U A24G A41U C45G | 0.4
72 | C3U U9G G35A C37G | 0.27

Row | Variant | self-cleavage
73 | C3U A16C A26C C45A | 0
74 | C3G U9G A11G | 0.18
75 | C3U C8A C23U A24C | 0.37
76 | C3U C10U G29U | 0.2
77 | C3G G21U U43A | 0.2
78 | C3U C13G A16U U20G G33U | 0.05
79 | C3U G29U U38G | 0.03
80 | C3U G5C A12U A16C C18U | 0.04
81 | C3U A12C C13A C23U A25G U28A | 0.01
82 | C3U A6C C23G C31U G36U U43A | 0.03
83 | C3U C10A G21A C37U | 0.01
84 | C3U C15A G27U | 0.07
85 | C3U A16G A41G G44A | 0.05
86 | C3U G33C G40C | 0.04
87 | C3U C15G G17C C18G U28C C31A C37G G44U | 0.01
88 | C3U A4G G40C | 0.03
89 | C3U C23A U34A G36C | 0.05
90 | C3U C23A G29U U38C U43C | 0.21
91 | C3U U9A C13U G21A G30C C37G U38A C46A | 0.5
92 | C3U C13U G33A C37A | 0.07
93 | C3U C13G C15A G21A | 0.21
94 | C3G U28G U32C G33A | 0.04
95 | C3U C10U G27U C31A | 0.16
96 | C3U G17A C18A C42U | 0.03

Row | Variant | self-cleavage
97 | C3U A4C G7A C23U | 0.44
98 | C3U U9A A12C | 0.04
99 | C3U G5A G40A | 0.06
100 | C3U A4C G17U U28G | 0.03
101 | C3U G21A U28C G33A C46G | 0.13
102 | C3U G5C G17A C18A C31A G40A | 0.02
103 | C3U U20C A24G G29A | 0.44
104 | C3U U9A U20G A41U | 0.02
105 | C3U A24C C37U U38A | 0.05
106 | C3U A4C G7A A11C C13G G27C | 0.02
107 | C3G U20C C46A | 0.95
108 | C3U G29A C37U C45U | 0.14
109 | C3U A14G G44C | 0.09
110 | C3U G7A U9C C13A C18A G19A G30C C31U | 0.03
111 | C3U C8A G33A | 0.57
112 | C3U A6G A14C C18G | 0.03
113 | C3U C8G C15A C18A C23G | 0.06
114 | C3U C8A G36A | 0.65
115 | C3U G27U U32C U38C G44C | 0.06
116 | C3U A14G U28C G33A | 0.16
117 | C3U U20G G22C U28C C31U C46U | 0.14
118 | C3U G5U G19U U20C U38A G40A | 0.05
119 | C3U A6U C45G | 0.09
120 | C3U A11C G27U C31G | 0

Row | Variant | self-cleavage
121 | C3U C8U G22C G27U | 0.08
122 | C3G G27C G30U U38A G40A | 0.2
123 | C3U A12U A14C | 0.03
124 | C3U A12U A14G | 1.21
125 | C3G G21U G40A | 0.07
126 | C3U C23A G33U | 0.08
127 | C3U G5C G17U U38C | 0.05
128 | C3U G19U U20G G27A A41G C46U | 0.03
129 | C3U G17A G40C | 0.03
130 | C3U G7C C10A C23G A25C U34A | 0.04
131 | C3U A4C C42G | 0.16
132 | C3U U9G A24G G30U G36U A39U C45U | 0.43
133 | C3U G7U A14U C18G U28G G36U G40A A41G | 0.01
134 | C3U A14C G30U | 0.19
135 | C3U C31G C46G | 0.03
136 | C3U G17C A25G G29A G35C G40U C45G | 0.01
137 | C3U A6U A12G U32A | 0.06
138 | C3G G27U C42A | 0.01
139 | C3U A16G G17C A24C G29A C42G | 0.01
140 | C3U G5C C8G G29A G40U C42A | 0.08
141 | C3U C10A A11C G29A U32G | 0.01
142 | C3U C8U A12U A25C C37A | 0.14
143 | C3U A16U A24C G36U | 0.12
144 | C3U G35U A39U | 0.24

Row | Variant | self-cleavage
145 | C3U G5U A12U | 0.1
146 | C3U C15U G29C G30C C42U | 0.1
147 | C3U U28A U34G C42G | 0.02
148 | C3U A16C G30A C37A U43G G44A | 0.04
149 | C3U A4C G17C G35U | 0.03
150 | C3U C10A U32A A39U G40U | 0.01
151 | C3U C23A C31A | 0.13
152 | C3U A11U A39C | 0.02
153 | C3U G21A U28A | 0.42
154 | C3G U9A C18G G19U C23U A26C | 0.03
155 | C3U G5U U32G | 0.05
156 | C3U C23U U28G U34G | 0.04
157 | C3G G29C C45U | 0.23
158 | C3U G7U C23A G29A G33C | 0.13
159 | C3U C18A A41U U43G | 0.12
160 | C3G G29U C45U | 0.45
161 | C3U A6C G40C | 0.04
162 | C3U U9G A11C G22U U32G | 0
163 | C3U C8U G17C U34A | 0.21
164 | C3U C18U G22U C46G | 0.34
165 | C3U A6C A12G G30U | 0
166 | C3U C8A C10G A14U U34C C46U | 0.04
167 | C3U G7A C18G | 0.1
